The whole screen tested about 310,000 compounds, of which about 2,200 (0.71%) showed an effect of 50% or more. Effects have a minus sign here. The list shows a part of the results.
biological target: human ether-à-go-go-related gene (hERG) potassium channel (human, UniProt Q12809); assay: primary screen, population patch clamp on CHO cells stably expressing hERG
Sequence (Q12809 whole entry, looked up): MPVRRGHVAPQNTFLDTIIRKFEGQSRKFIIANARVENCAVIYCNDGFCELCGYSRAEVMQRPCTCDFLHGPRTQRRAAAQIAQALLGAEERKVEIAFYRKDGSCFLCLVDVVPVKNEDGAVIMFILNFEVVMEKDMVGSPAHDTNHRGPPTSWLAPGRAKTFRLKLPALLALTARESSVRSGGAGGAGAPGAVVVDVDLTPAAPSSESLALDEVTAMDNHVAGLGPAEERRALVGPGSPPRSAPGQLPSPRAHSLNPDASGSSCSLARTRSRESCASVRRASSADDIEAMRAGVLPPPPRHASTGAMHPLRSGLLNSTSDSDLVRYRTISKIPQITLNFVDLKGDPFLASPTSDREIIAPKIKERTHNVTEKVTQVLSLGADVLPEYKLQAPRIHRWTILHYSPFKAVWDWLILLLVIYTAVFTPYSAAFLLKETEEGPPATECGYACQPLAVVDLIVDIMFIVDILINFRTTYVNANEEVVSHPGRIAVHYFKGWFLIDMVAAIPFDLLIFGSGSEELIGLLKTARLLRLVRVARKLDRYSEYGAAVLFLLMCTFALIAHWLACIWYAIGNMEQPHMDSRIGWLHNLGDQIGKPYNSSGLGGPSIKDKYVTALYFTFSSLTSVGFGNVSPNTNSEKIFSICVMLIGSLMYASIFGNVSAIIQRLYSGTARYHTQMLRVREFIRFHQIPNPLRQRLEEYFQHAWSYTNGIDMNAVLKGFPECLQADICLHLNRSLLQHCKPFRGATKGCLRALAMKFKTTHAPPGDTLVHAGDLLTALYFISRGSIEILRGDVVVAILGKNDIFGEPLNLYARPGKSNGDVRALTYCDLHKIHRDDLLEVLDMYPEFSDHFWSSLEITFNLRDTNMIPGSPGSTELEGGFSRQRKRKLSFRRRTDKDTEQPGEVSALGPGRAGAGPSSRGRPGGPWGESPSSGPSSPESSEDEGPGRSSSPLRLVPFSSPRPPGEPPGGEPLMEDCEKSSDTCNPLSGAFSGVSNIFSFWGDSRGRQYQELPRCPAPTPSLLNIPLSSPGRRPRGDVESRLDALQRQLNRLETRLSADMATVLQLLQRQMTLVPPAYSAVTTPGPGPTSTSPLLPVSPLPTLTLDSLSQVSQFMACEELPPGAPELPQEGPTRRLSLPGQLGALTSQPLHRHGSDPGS

Structure (SMILES)	hERG current change (%, negative = inhibition) at 1uM
O=C(NCc1ccccn1)c1ccc2nc(-c3ccco3)c(-c3ccco3)nc2c1	16.6%
COc1cccc2sc(NNC(=O)COc3ccccc3)nc12	9.35%
Cc1oc2ccc(OC(=O)COc3c(F)c(F)c(F)c(F)c3F)cc2c1C(=O)OC(C)C	5.43%
Cc1cccc(-n2c(-c3ccco3)nc3ccccc3c2=O)c1C	10.9%
CC1(C)CCCC2=C1CC1C(=O)N(Cc3cccnc3)C(=O)C1C2 (stereo not drawn)	3.04%
Cc1cc(=O)n2nc(N3CCC(C(=O)NCc4ccco4)CC3)sc2n1	24.7%
CCC(=S)/C=C1\Sc2ccc3ccccc3c2N1CCCS(=O)(=O)[O-].[Na+]	11.1%
COc1cccc(-n2nnc3c(=O)n(Cc4ccccc4F)cnc32)c1	0.239%
CCCCNC(=S)N(CCO)Cc1cc2cc3c(cc2[nH]c1=O)OCCO3	5.16%
CSc1nc(Oc2ccc(Cl)cc2)c2sccc2n1	1.41%
COc1ccc(CCNC(=O)c2[nH]c(C)c(C(C)=O)c2C)cc1OC	8.6%
CCC1(c2ccccc2)NC(=O)N(CC(=O)Nc2ccc(S(=O)(=O)NC3=NCCCCC3)cc2)C1=O (stereo not drawn)	16.7%
COC(=O)CSc1nc2ccc(NC(C)=O)cc2s1	13%
COc1ccccc1-n1c(SCC(=O)Nc2ccc(F)cc2)nc2c(c1=O)SCC2	7.97%
Cc1ccc(C(=O)Nc2ccc(Cc3ccncc3)cc2)cc1[N+](=O)[O-]	-6.53%
Cc1ccc2[nH]c(=O)c(CN(CCCN(C)C)C(=S)NCCc3ccccc3)cc2c1	4.08%
CCOC(C[n+]1c(-c2ccccc2)cc(C)cc1-c1ccccc1)OCC.[O-][Cl+3]([O-])([O-])[O-]	15.2%
OCCCNc1nc(-c2ccc(Cl)cc2)nnc1-c1ccc(Br)cc1	7.33%
CCOP(=O)(OCC)C(NC(=O)c1ccc(C)cc1)C(Cl)(Cl)Cl (stereo not drawn)	13.5%
Cc1cc(C)c(S(=O)(=O)Nc2cccc(/C=C/C(=O)O)c2)c(C)c1	10.3%
O=c1c2cccnc2[nH]c(=S)n1Cc1ccccc1	17.7%
CCn1nc(NC(=O)c2ccncc2)c2cc3ccc(C)cc3nc21	-0.872%

Structure (SMILES)	hERG current change (%, negative = inhibition) at 1uM
COc1ccc(NC(=O)CN(C)C(=O)c2sc3cc(Cl)ccc3c2Cl)cc1	-0.358%
COc1ccc(CN2C(=O)c3cccnc3C2=O)cc1S(=O)(=O)NCc1ccco1	18%
CC1CCc2cc(F)ccc2N1C(=O)CN1C(=O)c2ccccc2C1=O (stereo not drawn)	7.18%
O=c1oc2ccc3ccccc3c2cc1-c1nnc(-c2ccccc2)o1	10.5%
Cc1c(C(=O)Nc2ccc(C(=O)O)cc2)cnn1C	16.1%
Cc1ccc2c(c1)c1ncnc(N3CCc4ccccc4C3)c1n2C	6.72%
COc1ccccc1CNCC(O)(c1ccc(Cl)cc1)c1ccc(Cl)cc1	6.37%
Cc1[nH]c(=O)[nH]c(=O)c1S(=O)(=O)N1CCCC(C(=O)NCc2ccc3c(c2)OCO3)C1 (stereo not drawn)	15.1%
Cc1ccc(N=C2C(=O)Nc3ccccc32)cc1C	13.4%
CN1C(=O)C(=Cc2ccccc2OCc2ccccc2Cl)C(=O)N(C)C1=O	14.9%
Cc1ccccc1NC(=O)NCCCN1CCCC1=O	13%
CCn1c(O)c(C=NCCN2CCOCC2)c(=O)n(CC)c1=S	6.82%
COC(=O)c1ccc(C2=NOC(C)(c3nnc(-c4cccc(Cl)c4)o3)C2)cc1 (stereo not drawn)	11.7%
O=C(c1ccc2c(c1)N(Cc1cccc(Cl)c1)C(=O)c1ccccc1S2(=O)=O)N1CCN(c2ccccn2)CC1	12.7%
COc1ccc(OC)c(C2C3=C(CCCC3=O)Nc3nnnn32)c1 (stereo not drawn)	5.45%
Clc1ccc(-c2csc(Nc3cccnc3)n2)cc1	13.4%
CCN(CC)c1ccc(NC(=O)c2ccc(Br)o2)cc1	0.994%
CCc1cc(C(=O)N/N=C/c2c(C)[nH]c3ccccc23)cs1	6.63%
COC(=O)c1ccc(NC(=O)CSc2nccn2CCc2ccccc2)cc1	18.3%
COc1ccc(C2NC(=O)N(C)C3=C2C(=O)CC(C)(C)C3)cc1OC (stereo not drawn)	9.95%
Cc1cc(=S)[nH]c2ccccc12	14.4%
CC(C)Sc1nnc([C@H](Cc2c[nH]c3ccccc23)NC(=O)OC(C)(C)C)o1	0.773%

Structure (SMILES)	hERG current change (%, negative = inhibition) at 1uM
COc1ccc(NC(=S)N(Cc2ccc(Cl)cc2)Cc2ccc(C(=O)O)cc2)cc1Cl	1.05%
CN1CCN(S(=O)(=O)c2ccc(Cl)cc2)CC1	10.3%
CN(C)C(CNC(=O)CCOc1ccccc1)c1ccco1 (stereo not drawn)	9.31%
CCOc1ccc(S(=O)(=O)NCCC(=O)OCC(=O)Nc2cc(C)on2)cc1	-32.8%
CSCCC(NC(=O)c1ccc(Cl)cc1Cl)C(=O)NCc1ccncc1 (stereo not drawn)	4.15%
COc1ccc(S(=O)(=O)N(C)c2ccc(C(=O)N3CCCCC3)cc2)cc1	4.64%
Cc1cc(N2Cc3ccccc3C2)ccc1C=O	7.62%
Cc1ccccc1NC(=O)Cn1nnc(S(=O)(=O)c2ccc(C(C)(C)C)cc2)c1N	10.5%
Cc1ccc(NC(=O)CCCN2C(=O)NC(C)(C)C2=O)cc1	12.7%
COCCCN=Cc1c(-c2ccccc2)[nH]n(-c2nc3ccccc3s2)c1=O	-55.9%
CSc1nc(O)c(/C=C2\C=Nc3ccccc32)[nH]1	13%
CCCOc1ccc(/C(O)=C2/C(=O)C(=O)N(CCCOC)C2c2cccnc2)cc1 (stereo not drawn)	-0.232%
Nc1ccc(/C=C/c2ccc3ncccc3c2)cc1	22.8%
CCOc1cc(/C=N/NC(=O)c2ccc(N(C)S(=O)(=O)c3ccccc3)cc2)ccc1OC	2.27%
CCCC(=O)Nc1cccc2c1CCCC2	17.7%
COc1ccc(OCCN2CCN(C(=O)c3ccc(OC)cc3)CC2)cc1	-90.6%
O=C(Nc1ccccc1N1CCCC1)c1ccc([N+](=O)[O-])o1	1.03%
CN(C)CCSC1c2ccccc2CSc2ccccc21.Cl (stereo not drawn)	8.57%
CC(=O)c1cccc(NS(=O)(=O)c2ccc(-c3cnc(C4CC4)o3)cc2)c1	11.5%
COc1ccccc1C(=O)NC(=S)Nc1ccc(NC(=O)c2cccs2)cc1	6.17%
Cc1ccc(S(=O)(=O)N(CC(=O)NCCSc2ccccn2)c2ccc(C)c(C)c2)cc1	1%
Nc1c(N(Cc2ccco2)C(=O)c2cccc(Cl)c2)c(=O)[nH]c(=O)n1Cc1ccccc1	10.1%

Structure (SMILES)	hERG current change (%, negative = inhibition) at 1uM
CC(=O)c1cc2cc(O)ccc2o1	3.09%
O=C(Cc1ccccc1)N1CCN(Cc2ccc([N+](=O)[O-])cc2)CC1	-17.4%
CC(C(=O)OCC(=O)c1ccc([N+](=O)[O-])cc1)N1C(=O)C2C3C=CC(C3)C2C1=O (stereo not drawn)	12.5%
O=C(Nc1ncccn1)C1CCCN1S(=O)(=O)c1ccc(Cl)c(Cl)c1 (stereo not drawn)	11.2%
COc1ccc(C2NC(=O)C(C#N)=C(S)N2c2ccc(C)cc2)cc1OC (stereo not drawn)	15.5%
COc1ccc(Cc2nnc(NS(=O)(=O)c3ccc([N+](=O)[O-])cc3)s2)cc1	9.91%
COC(=O)c1cccc(NC(=O)Cc2ccccc2[N+](=O)[O-])c1C	-8.27%
CCC(C(=O)NCc1ccc(F)cc1)N(CCc1ccccc1)C(=O)c1snc(C(N)=O)c1N (stereo not drawn)	4.48%
COc1ccc(CCNS(=O)(=O)c2ccc([N+](=O)[O-])cc2)cc1OC	11%
CN1CCN(S(=O)(=O)c2ccc(N3CCN(C(=O)c4ccccc4)CC3)nc2)CC1	18.7%
CC(=O)Nc1nc(C=C(Cl)Cl)cs1	5.26%
Cn1c2ccccc2c2c(C(=O)NCC3CCCO3)cn(C3CCCC3)c(=O)c21 (stereo not drawn)	14.1%
CCOC(=O)N1CCC(NC(=O)c2cc(S(=O)(=O)NCCc3ccccc3)ccc2F)CC1	3.72%
CCOC(=O)c1c(NC(=O)c2cccs2)sc2c1CCCC2	13.2%
Cc1ccc(C)c(OCCCCCn2ccnc2)c1	-5.73%
O=C(O)/C=C/C(=O)Nc1ccc(S(=O)(=O)Nc2nccs2)cc1	11.6%
CCC(=O)c1ccc(OCC(=O)OCC(=O)NC2CCCCCCC2)cc1	16.8%
O=C(NN1CCOCC1)c1sc2cccc(F)c2c1Cl	7.3%
COC(=O)C(C)(C)ONC(=O)Nc1ccc(C)cc1	-1.44%
COc1ccc(CN2CCN(c3ccccn3)CC2)cc1OCc1ccccc1	-22.5%
COCCNC(=O)CN(C(=O)CCC(=O)Nc1ccccn1)c1ccc(C)cc1C	7.71%

From paper PMC4336329 (PLoS ONE, 2015)
